This passage reports binding results from PMC9040859.

No constants are given. Whether binding was seen depends on the method and setting. In cells and extracts the contact can be indirect. Some entries that bind do so weakly or less than the wild type.

The target in assay [1] is GST-USP7-C1 (aa 561 to 916) (UniProt Q93009). Briefly: pull-down; GST-USP7 fusion proteins on glutathione Sepharose 4B beads incubated with 800 ug of H1299 cell lysate (virus-infected or Flag-DBP-transfected) at 4 C overnight, washed three times with RIPA buffer, immunoblot; only the target purified. For orientation: In western blotting, separated proteins are transferred to a membrane and probed.

Assay [2] deals with GST-USP7-C2 (aa 913 to 1102) (UniProt Q93009). The description is as above.
In assay [3] the target is GST-USP7-CD (catalytic domain, aa 212 to 561) (UniProt Q93009). Described as above.
The target of assay [4] is GST-USP7-TD (TRAF-like domain, aa 1 to 215) (UniProt Q93009). Described as above.
The target in assay [5] is FLAG-tagged WT HAdV-C5 DBP (human adenovirus C5 (HAdV-C5)) (UniProt P03265). The assay is described as follows: co-IP; H1299 cells transfected with Flag-DBP and Myc-USP7 plasmids, harvested 48 hpt; RIPA lysates; DBP precipitated with MAb Flag-M2, blot with anti-USP7.
The target is the same in assay [6]. Briefly: co-IP; HCT116 cells cotransfected with Myc-USP7 and Flag-DBP WT or mutant plasmids, harvested 48 hpt; RIPA lysates; DBP precipitated with MAb Flag-M2, blot for USP7.
Assay [7] addresses HAdV-C5 DNA binding protein (DBP), wild type, expressed from the virus H5pg4100 (human adenovirus C5 (HAdV-C5)) (UniProt P03265). Briefly: co-IP; Myc-USP7-transfected H1299 cells infected 24 hpt (MOI 20) with WT or mutant virus, harvested 48 h later; RIPA lysates; DBP precipitated with MAb B6-8, blot with anti-USP7.
Assay [8] shares this target. Briefly: co-IP; HCT116 cells infected with WT H5pg4100 (MOI 20), harvested 48 h later; RIPA lysates; DBP precipitated with an anti-DBP antibody, blot with anti-USP7 (endogenous USP7).

For “FLAG-tagged WT HAdV-C5 DBP (from UniProt P03265 1-529)”, the binding result is given as “no binding” in assay [1], “no binding” in assay [2], “no binding” in assay [3] and “binds” in assay [4].

With “HAdV-C5 DNA binding protein (DBP), wild type, expressed from the virus H5pg4100 (from UniProt P03265 1-529)”, the binding entry in assay [1] was “no binding”; in assay [2], “no binding”; in assay [3], “no binding”; in assay [4], “binds”.

On to “Myc-tagged ubiquitin-specific protease 7 (USP7) (from UniProt Q93009 1-1102) (enzyme)”, for which the binding entry in assay [5], in assay [6] and in assay [7] was “binds” each time.

With “endogenous ubiquitin-specific protease 7 (USP7) (from UniProt Q93009 1-1102) (enzyme)”, in assay [8], the binding result is on record as “binds”.
